Test results: paper PMC4336329 (PLoS ONE, 2015)
Screen size: about 310,000 compounds; about 14,000 (4.5%) showed an effect of 50% or more. The effect is printed as a negative number. Some of the results follow.

molecular target: human ether-à-go-go-related gene (hERG) potassium channel (human, UniProt Q12809); test: primary screen, population patch clamp on CHO cells stably expressing hERG
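Also: peak tail current of the secondary pulse compared with the same well before compound.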

Chain of human ether-à-go-go-related gene (hERG) potassium channel (Q12809 whole entry, looked up): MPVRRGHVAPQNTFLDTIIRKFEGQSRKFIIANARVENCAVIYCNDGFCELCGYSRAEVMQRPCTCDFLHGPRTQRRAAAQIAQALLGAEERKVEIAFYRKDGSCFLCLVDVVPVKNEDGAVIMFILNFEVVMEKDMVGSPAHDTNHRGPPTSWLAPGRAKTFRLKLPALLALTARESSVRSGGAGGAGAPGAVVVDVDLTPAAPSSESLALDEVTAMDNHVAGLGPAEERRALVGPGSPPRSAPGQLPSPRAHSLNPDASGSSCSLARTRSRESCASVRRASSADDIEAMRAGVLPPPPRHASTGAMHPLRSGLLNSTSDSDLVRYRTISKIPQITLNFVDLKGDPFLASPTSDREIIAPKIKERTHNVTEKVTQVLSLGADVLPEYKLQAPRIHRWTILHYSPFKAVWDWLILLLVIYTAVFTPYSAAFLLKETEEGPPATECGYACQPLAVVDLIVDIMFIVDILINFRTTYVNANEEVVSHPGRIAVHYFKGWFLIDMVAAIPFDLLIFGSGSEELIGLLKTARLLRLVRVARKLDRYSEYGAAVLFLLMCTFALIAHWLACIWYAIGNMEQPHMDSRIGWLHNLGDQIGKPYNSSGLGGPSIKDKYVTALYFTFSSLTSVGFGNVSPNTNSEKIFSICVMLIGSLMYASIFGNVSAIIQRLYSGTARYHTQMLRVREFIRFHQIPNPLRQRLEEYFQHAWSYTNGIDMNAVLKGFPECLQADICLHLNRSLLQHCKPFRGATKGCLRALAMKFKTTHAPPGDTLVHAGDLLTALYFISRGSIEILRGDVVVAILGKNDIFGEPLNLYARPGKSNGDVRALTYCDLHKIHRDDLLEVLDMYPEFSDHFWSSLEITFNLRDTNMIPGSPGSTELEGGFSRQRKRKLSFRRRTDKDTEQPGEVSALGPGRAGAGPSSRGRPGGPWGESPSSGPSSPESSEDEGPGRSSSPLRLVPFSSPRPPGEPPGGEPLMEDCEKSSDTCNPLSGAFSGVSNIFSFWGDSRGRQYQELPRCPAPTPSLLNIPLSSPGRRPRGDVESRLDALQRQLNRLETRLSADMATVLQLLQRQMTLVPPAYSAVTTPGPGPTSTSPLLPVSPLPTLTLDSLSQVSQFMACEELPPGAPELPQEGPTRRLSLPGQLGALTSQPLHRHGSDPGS

Row | Structure (SMILES) | hERG current change (%, negative = inhibition) at 10uM
1 | O=C(N/N=C/c1ccncc1)c1cc2c(ccc3ccccc32)o1 | 21.9%
2 | O=C(NCCOC(=O)c1ccc(Cl)c(S(=O)(=O)N2CCCCC2)c1)c1ccncc1 | -30.4%
3 | CCN1CCN(C(=S)Nc2cccc([N+](=O)[O-])c2)CC1 | -13%
4 | O=C(NC(=S)Nc1ccc(C(F)(F)F)cc1)c1csnn1 | 6.76%
5 | COc1ccccc1C(=O)NC(=O)COC(=O)c1cccc(NC(C)=O)c1 | -2.4%
6 | CCOc1ccccc1N1C(=O)CN(Cc2ccc(OC)c(OC)c2)C1=S | 24.9%
7 | O=C(NC(=S)NCc1ccco1)c1ccccc1 | -6.72%
8 | COc1ccc(-c2nc3ncccc3o2)cc1NC(=O)c1cccs1 | -7.85%
9 | Br.COc1ccc(Nc2nc(-c3sc(C)nc3C)cs2)cc1 | -17.5%
10 | CC1Cc2ccccc2N1C(=O)CN(C)S(=O)(=O)c1cccc2cccnc12 (stereo not shown) | -18.1%
11 | COc1ccc(CNC(=O)CCS(=O)(=O)c2ccc(Br)cc2)cc1 | 7.33%
12 | O=C(NCCc1ccccc1)c1cc(S(=O)(=O)N2CCCC2)ccc1F | -14.6%
13 | O=c1[nH]c2cc3c(cc2cc1CN(Cc1cccnc1)C(=S)NCc1ccco1)OCCO3 | -5.62%
14 | COc1ccc(Cn2nnnc2CN2CCN(c3ccc(OC)cc3)CC2)cc1 | -3.66%
15 | O=C1CCC2S/C(=C/Nc3ccc(C(F)(F)F)cc3)C(=O)N12 (stereo not shown) | -52.2%
16 | CC1(C)CC(=O)c2c(-c3cccs3)n[nH]c2C1 | -24.9%
17 | COc1ccc(S(=O)(=O)N2Cc3ccccc3CC2C(=O)Nc2nccs2)cc1OC (stereo not shown) | -4.54%
18 | Cc1cccc(N2CCN(C(=O)CCCOc3ccccc3)CC2)c1C | -15.4%
19 | C=CCNC(=O)N1C2=NC(C(=O)OC)=C(C(=O)OC)[C@@H]3N(Cc4ccccc4)c4ccccc4[C@]23C[C@H]1C(=O)OC | 15.3%
20 | CCCCNC(=O)c1ccc(/C=C2\Oc3ccccc3N(C)C2=O)cc1 | -20.4%
21 | CCOC(=O)N1CCc2c(sc(NC(=O)CN3CCN(C)CC3)c2C(=O)Nc2ccccc2)C1 | -77.2%
22 | CCC(=O)N1CCc2cc(S(=O)(=O)NCCC(=O)NC3CCCCCC3)ccc21 | -13.6%

Row | Structure (SMILES) | hERG current change (%, negative = inhibition) at 10uM
23 | C=CCN1C(=O)C(CC(=O)O)SC1=Nc1ccc(N=Nc2ccccc2)cc1.N (stereo not shown) | 15.9%
24 | O=C(NC1CCCN(c2ccc(C(F)(F)F)cn2)C1)c1cc(Cl)ccc1F (stereo not shown) | 5.34%
25 | Cc1cc(NC(CC(C)C)C(=O)O)nc(Cc2ccccc2)n1 (stereo not shown) | 9.96%
26 | Cc1cc(C(=O)CSc2nnc(N)s2)c(C)n1Cc1cccs1 | 2.28%
27 | COc1ccc(CCNC(=O)C2=COCCO2)cc1 | 18.8%
28 | N#CC[C@H](Cc1ccccc1)N1CC[C@@H](O)CCC1=O | -4.92%
29 | COc1ccc(OCCSc2nc(C)nc3ccccc23)cc1 | 34.5%
30 | Fc1ccc(COc2ccc(C(=S)N3CCCC3)cc2)cc1 | 0.242%
31 | COc1ccc(CN2C(=O)/C(=C/c3ccncc3)SC2=S)cc1 | 0.108%
32 | Cc1nn(C)cc1CN(C)C(=O)CCc1nnc(CCC2CCCCC2)o1 | -2.64%
33 | CC(=O)NCCNC(=O)[C@H](Cc1ccccc1)NC(=O)c1cccs1 | 2.74%
34 | CCOc1ccccc1N1CCN(C(=O)c2c(-c3ccccc3Cl)noc2C)CC1 | 2.42%
35 | COC(=O)C1=C(C)N(CCc2ccccc2)C(=O)C1(NS(=O)(=O)c1ccc(NC(C)=O)cc1)C(F)(F)F (stereo not shown) | -11.3%
36 | CN1CCN(c2ccccc2NC(=O)c2cc(Br)ccc2Cl)CC1 | -76.4%
37 | COCCNC(=O)c1onc(CSc2ccncc2)c1C(=O)NCCOC | 17.7%
38 | Cc1ccc(/C(O)=C2\C(=O)C(=O)N(c3cc(C)on3)C2c2cccc(Br)c2)cc1 (stereo not shown) | 11%
39 | COc1ccc(C2C(C(=O)N3CCOCC3)CCC(=O)N2c2ccc(OC)cc2)cc1 (stereo not shown) | 21.1%
40 | CCOCc1nnc(NC(=O)CSCc2ccccc2)s1 | -1.7%
41 | Cn1c(=O)c2c(nc(N3CCCC3)n2C)n(C)c1=O | 10%
42 | COc1cccc(C2C(C#N)=C(N)OC(C(C)(C)C)=C2C#N)c1 (stereo not shown) | -19.2%
43 | CCCCCCN=Cc1c(O)n(C)c(=O)n(C)c1=O | -7.16%
44 | COc1cc(/C=N/N2CCN(c3ccccc3)CC2)ccc1OC(C)=O | -5.1%

Row | Structure (SMILES) | hERG current change (%, negative = inhibition) at 10uM
45 | C=CCOc1ccc(/C=N/N2C(=O)C(CC(=O)Nc3ccc(F)cc3F)SC2=NC)cc1 (stereo not shown) | 7.61%
46 | COc1cccc2c1OCC(C(=O)OCc1cccnc1)=C2 | -17.4%
47 | CC1=CC(=O)NP(=O)(Oc2ccc3ccccc3c2)N1 (stereo not shown) | 4.73%
48 | CC1CCN(S(=O)(=O)c2ccc3c(c2)N(CC(=O)NCCCN(Cc2ccccc2)C(C)C)C(=O)CO3)CC1 | -62.5%
49 | O=C(c1cc(S(=O)(=O)N2CCOCC2)ccc1F)N1CCN(Cc2ccccc2)CC1 | -17.1%
50 | COC(=O)C1=C(C)N=C2SC(C#N)=C(N)N2C1c1cccc(OC)c1 (stereo not shown) | -7.86%
51 | Cc1ccc(CN2CCNC(=O)C2CC(=O)NC2CCCCCC2)cc1 (stereo not shown) | -16.4%
52 | O=C(COC(=O)c1cc(Cl)ccc1O)NCCNC(=O)COC(=O)c1cc(Cl)ccc1O | 21.4%
53 | COc1ccccc1Nc1nc(-c2sc(NC(=O)C(C)(C)C)nc2C)cs1 | 13.8%
54 | CCOC(=O)c1cc(-c2ccccc2)sc1NC(=O)C(C)OC(=O)c1ccncc1 (stereo not shown) | 6.25%
55 | C=C(C)CN(CC)CCC(=O)Nc1ccc(OC)cc1OC.Cl | -1.84%
56 | COc1ccc(S(=O)(=O)N2CCCCCC2)cc1C(=O)Nc1ccc(C)cn1 | 11.8%
57 | Cc1ccc(CNC(=O)CCS(=O)(=O)c2ccc(Cl)cc2)cc1 | -2.65%
58 | CCNc1cc(N2CCNCC2)ccc1[N+](=O)[O-] | -4.4%
59 | CC(C)c1ccc(N(CC(=O)NC2CCCC2)C(=O)CCC(=O)Nc2ccccn2)cc1 | -15.2%
60 | Cc1cc(C)cc(NC(=O)CSc2nc(CSc3ccc(Cl)cc3)cc(=O)[nH]2)c1 | 8.35%
61 | CCn1c(-c2cccn(Cc3ccc(Cl)cc3Cl)c2=O)n[nH]c1=S | 16.9%
62 | CN1CCN(Cc2nnc(-c3ccccc3)o2)CC1 | 22.7%
63 | COc1ccccc1C(=O)Nc1ccc(OCC(=O)N2CCCCC2C)cc1 (stereo not shown) | 1.76%
64 | COc1ccc(/C=C(\NC(=O)c2ccco2)C(=O)NCCc2nc3ccccc3[nH]2)cc1 | -42.6%
65 | CC(=O)NC12CC3CC(C1)CC(C(=O)N1CCN(c4ncccn4)CC1)(C3)C2 | 15.1%
66 | CCOC(=O)c1ccc(N2C(=O)CC(NNC(=O)c3ccc(Br)s3)C2=O)cc1 (stereo not shown) | 15.8%

Row | Structure (SMILES) | hERG current change (%, negative = inhibition) at 10uM
67 | Cc1sc(N2CCN(S(=O)(=O)c3ccc4c(c3)NC(=O)CO4)CC2)nc1-c1ccccc1 | 17.1%
68 | O=C(Oc1ccc(-c2nc(-c3ccccn3)no2)cc1)c1ccccc1 | 7.73%
69 | O=C(CSc1ccc2ccccc2c1)NCc1cccs1 | 7.31%
70 | COc1cccc(-c2ccc(SCC(=O)N3CCN(c4ccccc4)CC3)nn2)c1 | -37.4%
71 | O=C(/C=C/c1cccc([N+](=O)[O-])c1)NC(=S)Nc1ccc(CN2CCOCC2)cc1 | 1.82%
72 | CCOC(=O)C1CCN(C(=O)c2cc(-c3ccncc3)nc3ccccc23)CC1 | -67.2%
73 | COc1cccc2cccc(/C=N/n3cnnc3)c12 | -12.7%
74 | CCc1nnc(NC(=O)c2ncc(Cl)c(Cl)c2Cl)s1 | 12.9%
75 | O=[N+]([O-])c1ccc(C[n+]2cccc3c4ccccc4ccc32)cc1.[Br-] | -40.5%
76 | CCOc1ccc(NC(=O)c2cnccn2)cc1 | -2.81%
77 | CN(c1ccccc1)S(=O)(=O)c1cccc(NC(=O)c2ccncc2)c1 | -24.9%
78 | COc1ccc(NC(=O)c2cccc3c2C(=O)N(CC2CCCO2)C3)cc1OC (stereo not shown) | -17.9%
79 | CC(=O)c1ccc(N2CCN(C(=O)c3ccc(Br)cc3)CC2)c(F)c1 | -47.8%
80 | O=C(/C=C/c1cccc([N+](=O)[O-])c1)Nc1ccc(Cl)cn1 | -12.1%
81 | O=C(Cn1c(O)c(N=NC(=O)c2ccncc2)c2ccccc21)Nc1ccccc1 | -7.1%
82 | Cc1cccc[n+]1CC(=O)Nc1ccc([N+](=O)[O-])cc1.[Cl-] | -0.368%
83 | CC(=O)OC1CC(C)N(C(=O)c2ccccc2)c2ccc(C)cc21 (stereo not shown) | -1.74%
84 | CCc1c2c(nc3ccc(OC(=O)N4CCC(N5CCCCC5)CC4)cc13)-c1cc3c(c(=O)n1C2)COC(=O)[C@]3(O)CC.Cl.O | 12.8%
85 | CCOc1ccc(S(=O)(=O)NC(C)C)cc1C(N)=O | 20.9%
